From paper PMC4336329 (PLoS ONE, 2015)
Screen size: about 310,000 compounds; about 14,000 (4.5%) showed an effect of 50% or more. The effect is printed as a negative number. This is one part of the list.

What follows are molecules tested against human ether-à-go-go-related gene (hERG) potassium channel (human, UniProt Q12809) (assay: primary screen, population patch clamp on CHO cells stably expressing hERG).
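Further: peak tail current of the secondary pulse compared with the same well before compound.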

Sequence of human ether-à-go-go-related gene (hERG) potassium channel (Q12809 whole entry, looked up): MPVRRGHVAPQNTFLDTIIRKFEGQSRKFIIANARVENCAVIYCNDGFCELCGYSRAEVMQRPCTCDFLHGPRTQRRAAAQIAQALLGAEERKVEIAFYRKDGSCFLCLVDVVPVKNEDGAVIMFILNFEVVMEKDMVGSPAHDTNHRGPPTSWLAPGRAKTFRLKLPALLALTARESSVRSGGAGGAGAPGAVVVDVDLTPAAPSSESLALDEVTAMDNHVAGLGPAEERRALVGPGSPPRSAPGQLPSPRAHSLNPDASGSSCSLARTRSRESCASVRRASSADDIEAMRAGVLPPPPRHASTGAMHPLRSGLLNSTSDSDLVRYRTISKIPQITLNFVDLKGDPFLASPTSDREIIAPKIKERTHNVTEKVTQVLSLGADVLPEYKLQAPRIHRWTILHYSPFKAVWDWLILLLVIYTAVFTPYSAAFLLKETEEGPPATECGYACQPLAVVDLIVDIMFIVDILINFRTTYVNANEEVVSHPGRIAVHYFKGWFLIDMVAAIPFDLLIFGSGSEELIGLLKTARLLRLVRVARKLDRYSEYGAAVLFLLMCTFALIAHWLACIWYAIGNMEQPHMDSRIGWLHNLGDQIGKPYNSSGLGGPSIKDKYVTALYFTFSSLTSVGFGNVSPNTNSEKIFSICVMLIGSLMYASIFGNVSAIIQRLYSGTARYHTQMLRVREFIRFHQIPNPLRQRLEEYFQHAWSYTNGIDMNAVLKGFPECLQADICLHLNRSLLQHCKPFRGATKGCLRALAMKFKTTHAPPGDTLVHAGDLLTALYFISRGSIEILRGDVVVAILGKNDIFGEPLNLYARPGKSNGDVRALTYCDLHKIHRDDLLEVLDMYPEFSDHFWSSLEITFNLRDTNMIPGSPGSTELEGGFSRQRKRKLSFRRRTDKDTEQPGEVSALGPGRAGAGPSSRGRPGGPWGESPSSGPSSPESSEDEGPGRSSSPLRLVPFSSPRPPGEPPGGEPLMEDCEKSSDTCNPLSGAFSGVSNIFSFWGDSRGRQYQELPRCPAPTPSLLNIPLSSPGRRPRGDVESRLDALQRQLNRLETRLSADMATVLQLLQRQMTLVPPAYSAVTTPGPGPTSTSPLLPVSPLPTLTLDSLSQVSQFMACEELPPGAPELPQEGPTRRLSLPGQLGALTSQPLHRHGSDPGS

Row | Structure (SMILES) | hERG current change (%, negative = inhibition) at 10uM
1 | CCCNc1oc(-c2cccc3ccccc23)nc1C#N | 5.06%
2 | COc1ccc2[nH]c(=O)c(CN(c3ccccc3)S(=O)(=O)c3ccccc3)cc2c1 | 11.2%
3 | CC(C)(C)C(=O)Cn1ncc(NC2CC2)c(Br)c1=O | 3.04%
4 | CS(=O)(=O)N(Cc1ccccc1)c1ccc(C(=O)NCCSCc2ccco2)cc1 | -18%
5 | COC(=O)c1cc(C#N)c(Oc2ccc(OC)cc2)nc1C | -23.7%
6 | O=C1CC(NC(=O)c2ccc(Cl)cc2)C(=O)N1 (centres unmarked) | 14.8%
7 | O=C(CSc1nnc(-c2cccnc2)n1-c1ccccc1)Nc1ccccc1 | -76.3%
8 | Cc1cccc(/C=C2/SC(=O)N(Cc3ccccc3)C2=O)n1 | 1.77%
9 | O=C(O)CSc1nnc(Cc2ccccc2)n1Cc1ccccc1 | -7.15%
10 | CC(=O)N1c2ccc(S(=O)(=O)NCc3ccccc3Cl)cc2CC1C (centres unmarked) | -17.2%
11 | CN(CC(=O)Nc1ccc(F)cc1)C(=O)COC(=O)CN1C(=O)NC2(CCCC2)C1=O | 24.5%
12 | ONC(=Nc1ccccc1Cl)c1ccccc1Cl | -14%
13 | COc1ccc(N(C(C)C(=O)N/N=C/c2cccnc2)S(C)(=O)=O)cc1 (centres unmarked) | -3.44%
14 | COC(=O)Nc1nc(-c2cc(Cl)ccc2Cl)cs1 | 13.7%
15 | CCN1CCN(CCCNc2ncnc3nc[nH]c23)CC1 | -16.1%
16 | CCOC(=O)C1CCCN(C(=O)c2ccc3nc(-c4ccc(OC)c(OC)c4)c(-c4ccc(OC)c(OC)c4)nc3c2)C1 (centres unmarked) | -5.45%
17 | Cc1cc(NC(=O)CSc2ccc(Cl)cc2)no1 | -3.36%
18 | O=C(Nc1nnc(SCC(=O)N2CCOCC2)s1)c1ccccc1Cl | 3.26%
19 | CC[C@H](C)[C@@H]1NC(=O)c2cc([N+](=O)[O-])cc(F)c2NCCCC[C@@H](C(N)=O)NC(=O)[C@H](CC(N)=O)NC1=O | 8.58%
20 | O=C(Cn1nnc(-c2ccccc2NC(=O)c2ccccc2F)n1)NCc1ccco1 | 10.1%
21 | NC(=O)c1cc(S(=O)(=O)N2CCN(c3ccc([N+](=O)[O-])cc3)CC2)cs1 | -74.4%
22 | CCCN1C(=O)N(C)C(N(O)C(=O)NC)C1(C)C (centres unmarked) | 18%

Row | Structure (SMILES) | hERG current change (%, negative = inhibition) at 10uM
23 | CSc1ncccc1C(=O)N1CCN(C(=O)c2ccccc2)CC1 | 19.9%
24 | CCOCCCn1c(=N)c(C(N)=S)cc2c(=O)n3cccc(C)c3nc21 | -82.6%
25 | CCOc1ccc(C(=O)CCN2CCCCC2)cc1 | -19.7%
26 | CCOc1cc(-c2noc(-c3cccnc3)n2)ccc1OC | -3.28%
27 | CC(C)n1cc(CN2CCC(C(=O)Nc3cccc(-c4cscn4)c3)CC2)cn1 | -32.8%
28 | C=CC1CN(C(=O)OCC(Cl)(Cl)Cl)C2CC3c4ccc(OC)cc4NC3C3CC1C2CO3 (centres unmarked) | -7.61%
29 | Cc1ccc(Nc2nc(N)c([N+](=O)[O-])c(NCCO)n2)cc1C | 3.96%
30 | COc1ccc(/C(O)=C2\C(=O)C(=O)N(c3cc(C)on3)C2c2ccccc2OC)cc1C (centres unmarked) | -8.59%
31 | Cc1cccn2cc(CNC(=O)C3CCCCC3)nc12 | -12.6%
32 | O=C(CCSc1nnc(-c2ccncc2)o1)Nc1cccc(Cl)c1 | -9.38%
33 | CN(C)CCOc1ccc(Cl)cc1C(C)(C)C.O=C(O)C(=O)O | -3.37%
34 | O=C(NCc1ccco1)c1ccc(CS(=O)Cc2ccc(Cl)cc2)o1 (centres unmarked) | -30.5%
35 | O=C(c1ccccn1)C1CCCN(Cc2cn[nH]c2-c2cc3ccccc3o2)C1 (centres unmarked) | -70%
36 | COc1ccc(CCNc2ccc(C(CC(N)=O)NC(=O)c3ccccc3)cc2[N+](=O)[O-])cc1 (centres unmarked) | 7.15%
37 | CC(NC(=O)/C=C/c1ccco1)c1nc2ccccc2n1Cc1cccc(Cl)c1 (centres unmarked) | -67.2%
38 | O=C(N=Nc1c(O)[nH]c(=O)[nH]c1=O)C1COc2ccccc2O1 (centres unmarked) | -1.75%
39 | CCOP(=O)(OCC)C(O)c1ccc(OC)cc1OC (centres unmarked) | 14.7%
40 | Cc1sc2nc(SCC(=O)NCCOCCO)n(C)c(=O)c2c1C | 3.26%
41 | COc1ccccc1N1C(=O)NC(=O)C2(Cc3cc(C)ccc3N(C)C2)C1=O (centres unmarked) | -19%
42 | COc1ccc(/C=C/C(=O)NCc2cn(C)nc2C)cc1COc1ccc(Cl)cc1Br | 14%
43 | CC(=O)N(CC1CCCO1)c1nnc(-c2ccccn2)s1 (centres unmarked) | -5.02%
44 | O=C(NC(=O)c1ccccc1Cl)C(=O)Nc1ccc(Cl)cc1 | 9.59%

Row | Structure (SMILES) | hERG current change (%, negative = inhibition) at 10uM
45 | CCCn1nc(C(=O)OCC(=O)Nc2cccc(S(N)(=O)=O)c2)c2ccccc2c1=O | 10.3%
46 | O=C(Nc1nnc(Cc2ccccc2)s1)c1cccs1 | -9.52%
47 | CCC(C)[C@H]1CNC(=S)N1CCc1cccc2ccccc12 (some centres unmarked) | 25.2%
48 | COC(CN1C(=O)C(O)=C(C(C)=O)C1c1ccccn1)OC (centres unmarked) | 2.12%
49 | O=C(NCc1ccccn1)NC1CCCCC1 | 7.23%
50 | CCCCCC(=O)Nc1ccc(S(=O)(=O)Nc2cc(OC)nc(OC)n2)cc1 | 14.8%
51 | COC(=O)/C(=N/Nc1ccccc1C)N1CCCc2ccccc21 | 0.724%
52 | CCN1CC2([N+](=O)[O-])CC=C(Cl)C([N+](=O)[O-])(C1)C2 (centres unmarked) | 13.9%
53 | O=C(O)CCC(=O)NNC(=O)COc1ccc2ccccc2c1Br | 11.4%
54 | CC(C)NC(=O)CC1Nc2c3ccccc3nc(=S)n2C1=O (centres unmarked) | -0.232%
55 | CC1COc2ccccc2N1S(=O)(=O)c1ccccc1 (centres unmarked) | 8.86%
56 | COc1cc(OC)cc(C(=O)N[C@H](C(=O)OCC(=O)c2ccc3c(c2)NC(=O)CO3)C(C)C)c1 | -6.82%
57 | CCS(=O)(=O)N(CC(=O)Nc1cccc2ccccc12)c1ccc(OC)cc1 | -3.1%
58 | Cc1ccc(NC(=O)C(C)N2CCN(C)CC2)cc1S(=O)(=O)N1CCOCC1 (centres unmarked) | 2.14%
59 | Cc1cc2c(c(=O)o1)C1(C(=O)N(CC(=O)O)c3ccccc31)C(C#N)=C(N)O2 (centres unmarked) | 11.4%
60 | COc1ccccc1C(=O)NCCC(=O)Nc1ccc(S(=O)(=O)N2C(C)CCCC2C)cc1 (centres unmarked) | -6.83%
61 | COC(=O)C(Cc1c[nH]c2ccccc12)NC(=O)c1cccc(S(=O)(=O)N2CCCCC2)c1 (centres unmarked) | -3.04%
62 | O=C1[C@@H]2Cc3c([nH]c4ccccc34)C(c3ccccc3)N2C(=O)CN1C1CCN(Cc2ccccc2)CC1 (some centres unmarked) | -39.6%
63 | Cc1ccc(/C=C/C(=O)O)cc1S(=O)(=O)N(C)CCO | -4.65%
64 | CN1CCC(NC(=O)Cc2c(F)cccc2Cl)CC1 | -1.52%
65 | Cc1ccc2nc(Nc3ccc(Cl)cc3)c3nncn3c2c1 | 11.5%
66 | CN(CCCC(=O)Nc1nccs1)S(=O)(=O)c1ccc(Cl)cc1 | -10.1%

Row | Structure (SMILES) | hERG current change (%, negative = inhibition) at 10uM
67 | COC(=O)Nc1nc(-c2ccccc2)c(C(=O)c2ccccc2)s1 | 1.29%
68 | CCN(CC)C(=S)NC(=O)c1ccc(OC)c(Br)c1 | 15%
69 | CC(C)(C)c1ccc(C(=O)NNC(=O)c2cccc(Br)c2)cc1 | 9.58%
70 | CN(CC(=O)Nc1cccc(F)c1)C(=O)c1cc(S(=O)(=O)N2CCN(c3ccccc3)CC2)ccc1Cl | -10.8%
71 | Nc1cc(=O)[nH]c(SCC(=O)Nc2ccccc2-c2ccccc2)n1 | 10.5%
72 | COc1ccc(C2CC(c3ccccc3C)n3nc(N)nc3N2)cc1 (centres unmarked) | -16.1%
73 | CCCCCC(=O)Nc1ccc(-c2csc(N)n2)cc1 | 26.6%
74 | O=C(/C=C/c1ccco1)Nc1cccc2cccnc12 | -1.87%
75 | O=C(Nc1ccc(NC(=S)NC(=O)c2ccccc2F)cc1)c1cccs1 | 5.1%
76 | Cc1cc(-c2nc(C)c(C(=O)NNS(=O)(=O)c3cccc(C(F)(F)F)c3)s2)no1 | 1.2%
77 | C/C(=N\NC(=O)c1cc(-c2ccncc2)nc2ccccc12)c1ccc(OC(F)F)cc1 | -56.1%
78 | O=C1/C(=C/c2cc([N+](=O)[O-])ccc2Cl)N2CCC1CC2 | -12.6%
79 | CCCCNC(=O)c1onc(CSc2ccncc2)c1C(=O)NCCCC | 6.24%
80 | COc1cccc(NC(=O)C(=O)c2cn(CC(=O)N3CCCC3)c3ccccc23)c1 | -3.12%
81 | CCC(Sc1nc2cc(OC)c(OC)cc2c(=O)n1Cc1ccc(OC)cc1)C(=O)NCCOC (centres unmarked) | 7%
82 | Cc1cc(C)nc(SCC(=O)c2ccc(O)c(O)c2)n1 | 16.3%
83 | Cc1c(Cl)ccc2sc(NC(=O)CN3C(=O)c4ccccc4C3=O)nc12 | 12.5%
84 | Cc1c(NC(=O)C(C)OC(=O)CC2Sc3ccccc3NC2=O)c(=O)n(-c2ccccc2)n1C (centres unmarked) | -2.58%
85 | CC(=O)c1cccc(N(C(=O)Cn2nnc3ccccc32)C(C(=O)NC2CCCCC2)c2cn(C)nc2C)c1 (centres unmarked) | -6.1%
86 | CC1(C)Cc2c(c(=S)nc(-c3ccccc3)n2CCN2CCOCC2)CO1 | 8e-05%
